The text below walks through data of the antibiotic and cytotoxicity screens of Wong et al. (2023).

The subject of one test is HSkMC. The test can be described thus: cytotoxicity call (relative viability < 0.9). The following applies: 10 µM.
The subject of a further test is HepG2. Description: cytotoxicity call (relative viability < 0.9). As to conditions: 10 µM.
The next test relates to S. aureus RN4220. Description: growth inhibition call (relative growth <= 0.2). As to conditions: 50 µM.

The list shows a part of the results.

For the molecule `COc1cc2nc(N3CCN(C(=O)c4ccco4)CC3)nc(N)c2cc1OC.Cl`, in the test with HSkMC, the cytotoxicity call was “inactive”. The cytotoxicity call in the test with HepG2 was “active”. Moreover, the growth inhibition call in the test with S. aureus RN4220 was “inactive”.
For the molecule `COc1cc2ccc(=O)oc2c(OC)c1OC`, the cytotoxicity call in the test on HSkMC and with HepG2 was “inactive” in each case. The growth inhibition call in the test with S. aureus RN4220 was “inactive”.
As to `CC(C)(C)c1ccc(C(=O)Nc2cccc(C(F)(F)F)c2)cc1`, the cytotoxicity call in the test with HSkMC and in the test on HepG2 was “inactive” in each case. Besides, in the test with S. aureus RN4220, the growth inhibition call is “inactive”.
Take `C[C@@H]1CN([C@H](C)CO)C(=O)c2cc(NC(=O)Nc3ccc(F)cc3)ccc2O[C@@H](C)CCCCO[C@H]1CN(C)C(=O)NC1CCCCC1`: the cytotoxicity call in the test with HSkMC and in the test with HepG2 was “inactive” in each case. Besides, the growth inhibition call in the test with S. aureus RN4220 is “inactive”.
For the molecule `CO[C@H]1CN(C)C(=O)c2cc(NS(=O)(=O)c3ccccc3)ccc2OC[C@@H](C)N(C(=O)NC(C)C)C[C@H]1C`, the cytotoxicity call with HSkMC and in the test on HepG2 was “inactive” in each case. In the test on S. aureus RN4220, the growth inhibition call was “inactive”.
In the case of `COc1cccc(-c2cc(=O)c3cc(OC)ccc3o2)c1`, the cytotoxicity call with HSkMC and with HepG2 was “inactive” each time. In the test on S. aureus RN4220, the growth inhibition call is “inactive”.
Consider `CC(C)(Oc1ccc(Cl)cc1)C(=O)O`, for which the cytotoxicity call with HSkMC and in the test on HepG2 was “inactive” in each case. Also, the growth inhibition call with S. aureus RN4220 is “inactive”.
For `C[C@H]1CN([C@@H](C)CO)S(=O)(=O)c2ccc(-c3ccncc3)cc2O[C@H]1CN(C)C(=O)c1ccc2c(c1)OCO2`, the cytotoxicity call in the test on HSkMC and with HepG2 was “inactive” in each case. For the same molecule, the growth inhibition call in the test on S. aureus RN4220 was “inactive”.
With `COc1ccc2c3c(n(c2c1)C)[C@H](CO)N(Cc1ccccc1)C[C@]13CCN(CC1)C(=O)Nc1cccc(c1)F`, the cytotoxicity call with HSkMC and with HepG2 was “inactive” in each case. Moreover, in the test on S. aureus RN4220, the growth inhibition call was “inactive”.
For the molecule `C[C@@H]1CCCCO[C@@H](CN(C)Cc2ccccc2)[C@H](C)CN([C@H](C)CO)C(=O)c2cc(NC(=O)Nc3ccccc3)ccc2O1`, the cytotoxicity call in the test on HSkMC is “inactive”. Besides, in the test with HepG2, the cytotoxicity call was “active”. Further, the growth inhibition call with S. aureus RN4220 was “inactive”.
With `Cc1noc(C)c1NC(=O)Nc1ccc2c(c1)C(=O)N([C@@H](C)CO)C[C@H](C)[C@@H](CN(C)S(=O)(=O)c1cn(C)cn1)O2`, the cytotoxicity call in the test on HSkMC and with HepG2 was “inactive” throughout. Besides, the growth inhibition call in the test on S. aureus RN4220 was “inactive”.
`C[C@@H]1CN([C@@H](C)CO)C(=O)c2cc(NS(=O)(=O)c3cccs3)ccc2O[C@@H]1CN(C)S(=O)(=O)c1cn(C)cn1`: the cytotoxicity call in the test on HSkMC and with HepG2 was “inactive” in each case. In addition, the growth inhibition call in the test on S. aureus RN4220 was “inactive”.
Take `C[C@H](CO)N1C[C@H](C)[C@@H](CN(C)S(=O)(=O)c2ccc(F)cc2)Oc2ncc(-c3cccc(C(=O)N(C)C)c3)cc2C1=O`: the cytotoxicity call with HSkMC and in the test with HepG2 was “inactive” each time. For the same molecule, the growth inhibition call in the test on S. aureus RN4220 is “inactive”.
Regarding `COc1ccc(S(=O)(=O)Nc2cccc3c2O[C@H](CN(C)Cc2ccc(Oc4ccccc4)cc2)[C@@H](C)CN([C@H](C)CO)C3=O)cc1`, the cytotoxicity call with HSkMC and in the test with HepG2 was “inactive” throughout. The growth inhibition call with S. aureus RN4220 is “inactive”.
For `Cc1ccc(S(=O)(=O)N[C@H]2CC[C@H](CCNC(=O)CN3CCOCC3)O[C@H]2CO)cc1`, the cytotoxicity call in the test on HSkMC and in the test on HepG2 was “inactive” throughout. Also, the growth inhibition call in the test with S. aureus RN4220 was “inactive”.
In the case of `Cc1cc2cc(CN)ccc2[nH]1`, the cytotoxicity call in the test with HSkMC and with HepG2 was “inactive” throughout. Further, the growth inhibition call with S. aureus RN4220 was “inactive”.
For `C[C@H]1CCCCO[C@H](CN(C)Cc2ccc(Cl)c(Cl)c2)[C@@H](C)CN([C@@H](C)CO)C(=O)c2cc(NC(=O)Nc3ccc(F)cc3)ccc2O1`, the cytotoxicity call with HSkMC is “inactive”. Also, in the test on HepG2, the cytotoxicity call is “active”. Besides, the growth inhibition call with S. aureus RN4220 is “inactive”.
Turning to `O=C(Cc1ccncc1)NCC[C@H]1CC[C@H](NC(=O)C2CCOCC2)[C@H](CO)O1`, the cytotoxicity call in the test with HSkMC and with HepG2 was “inactive” in each case. In addition, the growth inhibition call in the test on S. aureus RN4220 was “inactive”.
For `O=C(O)/C=C(\CC(=O)O)C(=O)O`, the cytotoxicity call with HSkMC and in the test with HepG2 was “inactive” throughout. For the same molecule, the growth inhibition call with S. aureus RN4220 was “inactive”.
Take `Cc1noc(C)c1NC(=O)Nc1ccc2c(c1)CC(=O)N([C@@H](C)CO)C[C@@H](C)[C@H](CN(C)Cc1ccc(Oc3ccccc3)cc1)O2`: the cytotoxicity call in the test with HSkMC and in the test with HepG2 was “inactive” in each case. Further, the growth inhibition call in the test with S. aureus RN4220 is “inactive”.
For `CN1CCN(C(=O)C[C@H]2CC[C@H]3[C@H](COc4ccc(NC(=O)c5cccs5)cc4C(=O)N3C)O2)CC1`, the cytotoxicity call with HSkMC and in the test with HepG2 was “inactive” in each case. Besides, the growth inhibition call in the test on S. aureus RN4220 is “inactive”.
`O=C(C[C@H]1CC[C@H](NC(=O)CN2CCOCC2)[C@@H](CO)O1)NCCc1ccncc1`: the cytotoxicity call in the test with HSkMC and with HepG2 was “inactive” throughout. For the same molecule, the growth inhibition call with S. aureus RN4220 is “inactive”.
Regarding `CCCC#Cc1cnc2c(c1)C(=O)N([C@@H](C)CO)C[C@@H](C)[C@H](CN(C)S(=O)(=O)c1cn(C)cn1)O2`, the cytotoxicity call in the test on HSkMC and in the test on HepG2 was “inactive” each time. Moreover, in the test on S. aureus RN4220, the growth inhibition call was “inactive”.
Regarding `COCC(=O)N1C[C@@H](C)[C@H](OC)CN(C)C(=O)c2ccc(NC(=O)c3ccc(F)cc3)cc2OC[C@H]1C`, the cytotoxicity call with HSkMC and in the test with HepG2 was “inactive” in each case. For the same molecule, in the test on S. aureus RN4220, the growth inhibition call was “inactive”.
With `C[C@@H]1CN([C@@H](C)CO)C(=O)Cc2cc(NC(=O)c3ccncc3)ccc2O[C@H]1CN(C)S(=O)(=O)c1cccs1`, the cytotoxicity call in the test with HSkMC and with HepG2 was “inactive” in each case. In addition, the growth inhibition call in the test with S. aureus RN4220 is “inactive”.
Take `CCc1nc2ccc(C(=O)Nc3ccc(C(N)=O)cc3)cn2c1N(CC)Cc1cccc(Br)c1`: the cytotoxicity call with HSkMC and in the test with HepG2 was “inactive” each time. Also, in the test on S. aureus RN4220, the growth inhibition call was “inactive”.
`Cc1ccc(S(=O)(=O)Nc2ccc3c(c2)C(=O)N([C@@H](C)CO)C[C@H](C)[C@@H](CN(C)C(=O)Nc2c(C)noc2C)OCCCC[C@H](C)O3)cc1`: the cytotoxicity call in the test on HSkMC and in the test on HepG2 was “inactive” each time. In addition, the growth inhibition call with S. aureus RN4220 was “inactive”.
Regarding `CN(CC=Cc1ccccc1)Cc1cccc2ccccc12.Cl`, the cytotoxicity call with HSkMC and in the test with HepG2 was “inactive” throughout. For the same molecule, the growth inhibition call in the test with S. aureus RN4220 was “inactive”.
As for `C[C@@H]1CN([C@@H](C)CO)C(=O)c2cc(NC(=O)CCCN(C)C)ccc2O[C@H]1CN(C)S(=O)(=O)c1cccs1`, the cytotoxicity call in the test on HSkMC (human skeletal muscle cells) and in the test on HepG2 was “inactive” each time. Also, in the test with S. aureus RN4220, the growth inhibition call was “inactive”.
